From the RNAGym collection of RNA variant scans (doi:10.7554/elife.90254)
Read counts are not given, so values of variants with three or more changes are uncertain.

B1: LINE1-mini (parent)
chain: GGCAGAGCUCAACACAGCGUGGCAAAGUGGCUGUGGCUAGACUGCC

Variants of: B1
Experiment: self-cleavage, relative activity (ratio to wild type); higher = more cleavage; in vitro, sequencing; the parent is a self-cleaving ribozyme
For C10A G21U G35U U43A, the self-cleavage was 0.01. Variant A11U A25U U28C C31U C46A has a self-cleavage of 0.08. In the case of G7C G36C A41G, the self-cleavage is reported as 0.07. Work on C10G C23G U28G yielded a self-cleavage of 0. With A4G C10A A11U G19C C23A G29U C31A A39C the self-cleavage was 0. Work on G19U G29U C42G yielded a self-cleavage of 0.02. C8U U32C G35A showed a self-cleavage of 0.26. With C23U G40C C45U the self-cleavage was 0.2. G1A C10U A12C C46A gave a self-cleavage of 0. For U9G C23A A26G, the self-cleavage was 0.07. With A4G G21C G27C G44A the self-cleavage was 0.03. For G1U A6G C15U U34G, the self-cleavage was 0.08. C3G C10A G29A G30U C45U gave a self-cleavage of 0.11. In the case of G1U A14G U20G A24C, the self-cleavage is reported as 0.05. In the case of G7U C10A U20A G44U, the self-cleavage is reported as 0.02. For G2U G5C C13U A26U A41U G44A, the self-cleavage was 0. With G7A C15G G27C the self-cleavage was 0.03. A16G G19A G35U gave a self-cleavage of 0.03. Work on G1U A11C C13G C31U G40C C45U yielded a self-cleavage of 0.01. With C3G U20A G33A the self-cleavage was 0.05. For C10A C23G G30A, the self-cleavage was 0.04. With G5C A6G U20A U28A G30U the self-cleavage was 0.03. Variant G1U G19C A26C G33C has a self-cleavage of 0.03. G33C C37G U38G showed a self-cleavage of 0.06. G1U C8A C15A gave a self-cleavage of 0.13. Work on U28C A39G G40C C42A C45A yielded a self-cleavage of 0.07. In the case of A12G C37U G44A C45U, the self-cleavage is reported as 0.03. With C13A C23U G35C the self-cleavage was 0.79. With A11C A16G G29U G30U C46A the self-cleavage was 0. G5A C15A U20G gave a self-cleavage of 0.04. With A11U G17U G19U U34C C45A the self-cleavage was 0.03. With A16G U20C U28A G36C the self-cleavage was 0.01. Work on C10A A12U C18U C31A yielded a self-cleavage of 0. For A11U C23G C42U, the self-cleavage was 0.01. Work on G5A C13U G17U G30C G35A yielded a self-cleavage of 0.04. For G1U A6C G17U C23A, the self-cleavage was 0.04. G2U A26U U43G G44A gave a self-cleavage of 0.03. For A4U A26U U32G, the self-cleavage was 0.04. Variant A11C C23A U32A C37U has a self-cleavage of 0.01. For C18A G19U G27U, the self-cleavage was 1.39. Work on C13A G19A C46G yielded a self-cleavage of 0.04. Variant C3A U20C G22C A24U C31G C45U has a self-cleavage of 0.11. G2U C8G A24G U34G gave a self-cleavage of 0.07. With A16G U20A G27U G36A G40C A41U the self-cleavage was 0.01. In the case of C18G A26G C42G, the self-cleavage is reported as 0.01. With C10G G35A C46A the self-cleavage was 0.02. With A6G A11U G33U the self-cleavage was 0. A4G G5U G29C showed a self-cleavage of 0.01. For G1A G5A A6U C15G G19U, the self-cleavage was 0.16. Work on A12U A14C G29C C42G yielded a self-cleavage of 0. For C8G G21U U32A G33U C46U, the self-cleavage was 0.05. In the case of C8G C10G A11C C13A G17U U32C C46U, the self-cleavage is reported as 0.01. C13A G35C U43G C45U showed a self-cleavage of 0.06. With G22U U34A C42A the self-cleavage was 0.1. C8U A14G G30A gave a self-cleavage of 0.26. Variant U9A C10G C37G has a self-cleavage of 0.02. G5U G35U U38G gave a self-cleavage of 0.04. U9A C23G G30C showed a self-cleavage of 0.03. For C23A G29U C37A, the self-cleavage was 0.03. Work on G1C G7A G19C C23G U32A yielded a self-cleavage of 0.05. With A4G C10A A14C G22U the self-cleavage was 0.01. C3U C10U A14G C15G G19U G22U showed a self-cleavage of 0.02. For G5C C15U G17C A24U G36C U43C C46G, the self-cleavage was 0.02. With G2U C10A G29A the self-cleavage was 0.02. For C31U G33U U43C, the self-cleavage was 0.01. C10A G19U G33U G40A gave a self-cleavage of 0.02. C18A A25U G29U showed a self-cleavage of 2.32. For A4U U9G G19A A26U U38G G40A, the self-cleavage was 0.03. For G5U U20A A39C G44A, the self-cleavage was 0.02. For C8U C18A G19C, the self-cleavage was 0.19. G19A A24G G35A gave a self-cleavage of 0.1. C3G U9A C13A gave a self-cleavage of 0.43. For G2A C8A C46G, the self-cleavage was 0.66. C18A G19U A41C showed a self-cleavage of 0.04. For A6U C23G U38G G40U, the self-cleavage was 0.03. For A4U G7C A41U, the self-cleavage was 0.12. In the case of G2U C15G U28G U34G, the self-cleavage is reported as 0.01. With A6U C13G C31U G44U the self-cleavage was 0.01. G17A G27U G33U A41C showed a self-cleavage of 0.04. G1A C8G A12U C37A C45U showed a self-cleavage of 0.07. G1C C37U U43A gave a self-cleavage of 0.01. Work on C10A U20G C45U yielded a self-cleavage of 0.04. U9A C13G C15G showed a self-cleavage of 0.02. Work on G1U G17C G33U yielded a self-cleavage of 0.03. Variant C3G U9A C10A A24U has a self-cleavage of 0.03. A16C G22U A24C C31A G36U C45G showed a self-cleavage of 0.03. Variant G2C C3U G5C A11G A25U C42A has a self-cleavage of 0.05. C3U A24G A25U showed a self-cleavage of 0.64. C10U A11C G40A showed a self-cleavage of 0.01. With A6G C23A C31G A41U the self-cleavage was 0.08. C18G G35U A41U C42U gave a self-cleavage of 0.04. G5A C18U U20G G27C G29U C45G showed a self-cleavage of 0.25. Work on G2U A14C G36A yielded a self-cleavage of 0. For C15U G19U G30C, the self-cleavage was 0.07. Work on C3A G40A A41G yielded a self-cleavage of 0.11. C3A G5A A26C G29U G40A showed a self-cleavage of 0.35. C3G U9G U20C G21C A26C showed a self-cleavage of 0.04. With G7U C15U A16C G17A G19C C23G G29A the self-cleavage was 0.12. With C13A G40C U43C the self-cleavage was 0.17. In the case of U20C A26C U32G U38G C46A, the self-cleavage is reported as 0.02. G1A C18A A26U G27U G30C gave a self-cleavage of 0.92. In the case of C10A A11C G17U G33A U34A C42G, the self-cleavage is reported as 0.01. For G1A C8U A14U U43C, the self-cleavage was 0.03. C3U A16G G40A showed a self-cleavage of 0. Variant G29U C37A C42A has a self-cleavage of 0.1. Variant G2U C10A U28A has a self-cleavage of 0.02. In the case of A14U G35A U38A G40A, the self-cleavage is reported as 0.01. G1A G5U A6C G19U G30U G44A showed a self-cleavage of 0.05. For A4C A12U U34A, the self-cleavage was 0.06. In the case of A4G G7U A11U G27A G40A, the self-cleavage is reported as 0. Variant C3A C8G G35C C42U has a self-cleavage of 0.08. C15G U32C U34C showed a self-cleavage of 0.05. In the case of G2A C10G G36C, the self-cleavage is reported as 0.05. Variant C3G U20G G21C has a self-cleavage of 0.03. With G5C G21A C31G G36U the self-cleavage was 0.02. C8U C10A G27U showed a self-cleavage of 0. A4G G29A U34A G40U gave a self-cleavage of 0.14. For G2C C8U C23A, the self-cleavage was 0.02. Work on C10U G30A C37G C42A yielded a self-cleavage of 0.02. With A6U A26U C46A the self-cleavage was 0.82. G19U G29A G35U gave a self-cleavage of 0.03. A11U G29U G40U showed a self-cleavage of 0.52. With G5C A6U C45G the self-cleavage was 0.2. G19C G21A U28C U34A A41C gave a self-cleavage of 0.03. Variant G36A C37U C42U has a self-cleavage of 0.12. Work on C3A U28C C37A A39G C42U yielded a self-cleavage of 0.03. With A12G G22A U28C the self-cleavage was 0.02. For C3A A24U G44U, the self-cleavage was 2.8. C3A U9G C45U gave a self-cleavage of 0.3. G5A C15A G19A U38G U43A C45A showed a self-cleavage of 0. Work on U9C G21U G27C G44U C46A yielded a self-cleavage of 0.03. With G5A A14G G17A C18A G44C the self-cleavage was 0.05. In the case of A26C U28C G33A U38C C45U, the self-cleavage is reported as 0.22. In the case of A4G G5A C23G A24G, the self-cleavage is reported as 0.23. A11U G33U U43G C46U showed a self-cleavage of 0. G17A A26C C45U gave a self-cleavage of 0.05. Variant G17C A24U G35U A41G has a self-cleavage of 0.03. C18G U20C C23U C37G showed a self-cleavage of 0.06. For G2U A4G A11U C13A G17A G19C C23A A24G, the self-cleavage was 0.05. Variant C10U A11U G40U C45A has a self-cleavage of 0.01. With A6U U9G A25U the self-cleavage was 0.02. For A16U C31U G35A A41C, the self-cleavage was 0.02. C8G C10U A25C A26U showed a self-cleavage of 0.04. Work on A6C C8A U20C U28A G33A G36C A39U yielded a self-cleavage of 0.14. G5A G7C U20C C31U showed a self-cleavage of 0.01. U20A A25G G30A U32C gave a self-cleavage of 0.05. Work on C13A A24U A25U C37U U43A G44A yielded a self-cleavage of 0.07. With C3U A16G U43C C46A the self-cleavage was 0.01. For G2U C10A A14G A26G C37U, the self-cleavage was 0. With C15U G17A U20A C37A the self-cleavage was 0.04. With C8G C10U C15U the self-cleavage was 0.05. Variant G1C A6C U20A has a self-cleavage of 0.03. In the case of C13U A24U G30U, the self-cleavage is reported as 0.94. G5U C8A U20C U38C showed a self-cleavage of 0.23. A11G C15U G36A gave a self-cleavage of 0.01. For G5U A11G G40A C45U, the self-cleavage was 0.01. In the case of C18G G22U G29U C45U C46A, the self-cleavage is reported as 0.12. With G7U G29U C37U the self-cleavage was 0.11. Variant G7U C10A G27C G30C has a self-cleavage of 0. Work on C8A G29A U34G yielded a self-cleavage of 0.28. With C10U G29U U34G the self-cleavage was 0.69. For A26C G29A G36A C42U G44A C46U, the self-cleavage was 0.03. Work on U20G G21U U38G G40C yielded a self-cleavage of 0.03. Work on G1U G5C G29C yielded a self-cleavage of 0.03. C3U A6G C10U A14U G44U C45G showed a self-cleavage of 0.01. With A4U U28G C45G the self-cleavage was 0.08. A25C G27U U32A showed a self-cleavage of 0.12.
